Experimental data as given in paper PMC6212790.
Some of the results follow. At the low end of the ranking the order means little.

Molecular target: T1, GST-Rok-C97-191 (UniProt O34857)
T1 sequence: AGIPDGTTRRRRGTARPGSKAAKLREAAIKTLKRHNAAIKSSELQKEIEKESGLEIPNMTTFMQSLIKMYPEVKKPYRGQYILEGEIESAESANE
Assay: protein binding microarray;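 further: rank score from −0.5 (least bound) to 0.5 (best bound)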
Details: Rok is a gene silencer of Bacillus subtilis; high values mean tight binding; most listed sequences are background and not binding sites; double strand, one strand shown

Sequence | binding signal [E-score]
GCGTCGGA | -0.241
GACCTGAA | 0.026
ATAATCGC | 0.124
AAATCCTC | -0.0816
AGATAAAT | 0.248
TACCTTCA | -0.0353
AACGTCAC | -0.0218
CGACTTTA | -0.0431
ACTGTATC | 0.121
AAGCTCTC | -0.227
CGCGCAGC | -0.442
ACTACTAA | 0.379
CTTGATTC | -0.193
CATTCGGC | -0.163
GCAGGGAA | -0.262
CTATTGCA | 0.0247
CATCTCCA | 0.0694
ACTCTGAT | -0.119
AACACTCC | 0.00647
CGCTAATC | 0.188
CGCTTCAC | -0.177
GCTATACA | 0.176

Sequence | binding signal [E-score]
CTTAGCGC | 0.0409
ACTACAGC | 0.247
GTCTCCTA | 0.0202
CTATGAAC | -0.0693
CGGACTTA | -0.0748
GGCATGTA | 0.125
ACGGAATG | 0.219
AAGTCTAC | -0.0949
ACTGCTCA | 0.00989
CTACGCAG | -0.241
CTGACGTA | 0.044
CGTTCCGC | -0.323
ATGCGATA | 0.0838
CATCCCGA | 0.0422
CTTGTAGC | 0.0103
CCTCCGAG | -0.182
AAAGGGGA | -0.23
CTTTTCCA | 0.0149
AGGTTAAG | -0.0584
CGGGTGGC | -0.204
GCATACGC | -0.212
CAGGTAAA | 0.0575

Sequence | binding signal [E-score]
AATCGAGA | 0.0147
GTGTCAAA | -0.0452
ACTCAAGG | 0.117
CACGCCTC | -0.231
CCGGGGAG | -0.254
AACTAGTT | 0.439
GACATCGA | -0.111
ATGGATTA | 0.0887
ATATAGGG | -0.00212
ATCTAAGC | 0.12
GTTTCGCA | -0.113
ACTGAATG | -0.0429
GGTCTAAA | -0.00415
GGCTTCCA | -0.0948
GGATACTA | 0.167
AACTAGAG | 0.0733
CGCGCATA | 0.0658
ACTCTGGC | -0.2
CCGCTCGC | -0.252
CATCTGCA | -0.114
GAAGGACC | -0.092
CAGTGGGA | -0.131

Sequence | binding signal [E-score]
CTATGCAC | 0.207
CCAGAAAC | -0.169
AAACCAGG | -0.222
CTAGTTCC | 0.262
AAAGAATG | 0.0996
AAGAGTTA | 0.118
CGGCAGAG | -0.361
ATTTCTGC | 0.157
GGATCCAC | -0.0964
GCCACTGA | -0.0904
ACAAATAC | 0.266
GATGCGGA | -0.176
AATTCACA | 0.147
ACACCCGG | -0.122
ATGTTGTA | 0.13
AGAATTCG | 0.256
GCTCATTA | -0.0287
CAAACAGA | 0.0236
TCATGGGA | -0.0486
AACGGGCC | -0.376
